The text below walks through data of PubChem BioAssay AID1963576 (National Center for Advancing Translational Sciences (NCATS), 2024).

The whole screen tested about 46,000 compounds, of which about 60 (0.1%) were called active. Inconclusive results (about 3%) are left out. Calls come from the whole dose curve; as a rule, active = well fitted inhibition curve with a large enough effect; inconclusive = small, poorly fitted or top-dose-only effect; inactive = no such curve, though single readings can be large or run the other way. The list shows a part of the results.

The test is described as follows: Primary qHTS assay for Inhibitors of ovarian cancer metastasis using an organotypic tumor microenvironment (TME) model.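 For activity change, negative = inhibition: plate controls were DMSO wells for no effect and tomatine positive control wells for full effect.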 Note: nearly all actives have a fitted effect of over 65% in size. Conditions: SKOV3ip1-GFP adhesion/invasion on 3D omental model, fluorescence; series mostly up to 45.8 µM; activity change, negative = inhibition: at the top concentration. In short, it runs like this:
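qHTS, 4-pt dose (0.36-46 umol/L); SKOV3ip1-GFP, 1,200 cells/well, no FBS; primary omental fibroblast/mesothelial co-culture 48 h pre-grown; 2 h RT + 16 h 37 C; PBS wash, 4% PFA; GFP count 488/509 nm.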
Regarding `Cc1ccc(OCC(=O)Nc2ccccc2C(=O)OCc2cc(=O)n3c(C)csc3n2)cc1`, the result was inactive.

Turning to `COCCCNC(=O)Cn1c(=O)n(-c2ccc(Cl)cc2)c(=O)c2c3c(sc21)CCCCC3`, the call was inactive.

As to `COc1ccc(CCNC(=O)CN2C(=O)COc3ccc(S(=O)(=O)N4CCCCCC4)cc32)cc1OC`, the “activity change, negative = inhibition” value is inactive: 2.47%.

As for `O=C(Cn1ncc2c3ccccc3n(Cc3ccc(Cl)cc3)c2c1=O)NC1CCCCCC1`, the “activity change, negative = inhibition” value is inactive: 2.66%.

`CCc1ccc(CNC(=O)c2cnc3sc(N(CC)CC)nn3c2=O)cc1`: the “activity change, negative = inhibition” value is inactive: 5.48%.

With `CCOC(=O)C1CCCN(S(=O)(=O)c2ccc3c(c2)N(C)C(=O)CC(=O)N3C)C1` (stereo not drawn), the “activity change, negative = inhibition” value is inactive: 0.252%.

Regarding `COc1cc(-c2nnc(SCC(=O)Nc3cccc(C#N)c3)o2)cc(OC)c1OC`, the “activity change, negative = inhibition” value is inactive: 2.82%.

Regarding `Cc1ccc(Cl)cc1N1CCN(S(=O)(=O)c2ccc3c(c2)CC(=O)N3C)CC1`, the “activity change, negative = inhibition” value was inactive: 4.68%.

As to `CCn1c(SCC(=O)Nc2ccc(C)c(C)c2)nnc1-c1nonc1NC(C)=O`, the “activity change, negative = inhibition” value is inactive: 2.46%.

For `COCCCNc1ncnc2c1nnn2C`, the call was inactive.

As to `CCCCC(CC)Cn1c(Oc2ccccc2)nc2c1c(=O)n(C)c(=O)n2C` (stereo not drawn), the outcome was inactive.

With `CC[C@@]1(O)C(=O)OCc2c1cc1n(c2=O)Cc2cc3cc(O)ccc3nc2-1`, the “activity change, negative = inhibition” value was inactive: 8.37%.

`CCc1ccccc1NC(=O)C(=O)NCCc1sc(-c2cccc(C)c2)nc1C`: the “activity change, negative = inhibition” value is inactive: -0.146%.

Consider `Cc1ccc(NC(=O)c2ccc(CN3CC(=O)N4CCCCC4C3=O)cc2)cc1C` (stereo not drawn), for which the “activity change, negative = inhibition” value was inactive: -1.28%.

For the compound `CCOc1ccc(-n2c(=O)c3sc4ccccc4c3n(Cc3ccc(F)cc3)c2=O)cc1`, the call was inactive.

Turning to `O=c1oc2ccc3ccccc3c2cc1-c1nnc(Nc2cc(C(F)(F)F)ccc2Cl)s1`, the “activity change, negative = inhibition” value is inactive: 3.07%.

Take `COc1cccc(N2CCN(C(=O)c3nc(-c4ccc(Cl)cc4)n4c3CCCCC4)CC2)c1`: the “activity change, negative = inhibition” value was inactive: 9.5%.

In the case of `COCCn1c(SCC(=O)c2c[nH]c3ccccc23)nc2cc(C(=O)NCC(C)C)ccc2c1=O`, the “activity change, negative = inhibition” value was inactive: 2.46%.

Take `Cc1ccc(O)c(NC(=O)c2nc3nc(C)cc(C(F)F)n3n2)c1`: the “activity change, negative = inhibition” value is inactive: 50.2%.

Take `Cc1cccc(-c2[nH]c(C(C)(C)C)nc2-c2ccc3nccnc3c2)n1`: the “activity change, negative = inhibition” value is inactive: 1.85%.

`Cc1[nH]c2c(C)cccc2c1CCNC(=O)c1cc2ccccc2oc1=O`: the result was inactive.

As for `Cc1ccc(N(CC(=O)Nc2ccc(OC(F)(F)F)cc2)S(=O)(=O)c2c(C)noc2C)cc1`, the compound was called inactive.

`CC[C@H](C)n1cc(C)c2c(C(=O)NCc3c(C)cc(C)[nH]c3=O)cc(-c3ccc(N4CCNCC4)nc3)cc21`: the “activity change, negative = inhibition” value was inactive: -18.8%.

On to `Cc1[nH]c2ccccc2c1C1(O)C(=O)N(Cc2ccc(Cl)cc2)c2ccccc21` (stereo not drawn), for which the call was inactive.

Take `CCc1cccc(C)c1Nc1c(-c2cccc(O)c2)nc2sccn12`: the call was inactive.

As to `Nc1cccc(S(=O)(=O)N2CCCN(S(=O)(=O)c3ccc4c(c3)OCCO4)CC2)c1`, the “activity change, negative = inhibition” value is inactive: -23.8%.

As for `COc1ccc(CC(=O)Nc2sc3c(c2C(=O)Nc2ccc(C)cc2)CCCCC3)cc1`, the result was inactive.

Turning to `CCOC(=O)c1cc2c(=O)n3ccccc3nc2n(CC2CCCO2)c1=NC(=O)c1cc(C)cc(C)c1` (stereo not drawn), the “activity change, negative = inhibition” value is inactive: 0.94%.

As to `COC(=O)c1ccc(NC(=O)C2CCN(S(=O)(=O)c3ccc4c(c3)CCCN4C(C)=O)CC2)cc1`, the “activity change, negative = inhibition” value was inactive: -3.22%.

As to `COc1cc(NC(=O)CSc2nc3nc(C)c(Cc4ccccc4)c(C)n3n2)cc(OC)c1OC`, the “activity change, negative = inhibition” value is inactive: 3.72%.

In the case of `CCc1ccc(CNC(=O)c2cc3c(s2)-c2ccccc2OC3)cc1`, the “activity change, negative = inhibition” value is inactive: -12.8%.

Consider `Cc1nc(N2CCCC2)ncc1C(=O)NCc1ccccc1Cl`, for which the “activity change, negative = inhibition” value was inactive: 2.07%.

With `CCc1nnc2n1N(C(C)=O)C(c1ccc(C(C)(C)C)cc1)=C(C(C)=O)S2`, the “activity change, negative = inhibition” value was inactive: -11.5%.

In the case of `O=S(=O)(c1cccc(Cl)c1)c1nnn2c1nc(NC1CCCC1)c1sccc12`, the “activity change, negative = inhibition” value was inactive: -22.5%.

In the case of `CCCCOc1ccc(C(=O)NCCc2csc3nc(-c4ccccc4F)nn23)cc1`, the “activity change, negative = inhibition” value is inactive: 8.17%.

For the compound `Cc1ccc(Cl)cc1N(C)C(=O)c1cc2ccc3cccnc3c2[nH]1`, the “activity change, negative = inhibition” value is inactive: 3.88%.

Take `CCNC(=O)CC1C(=O)N(c2ccc(F)cc2)C(=O)N1Cc1ccc(C)cc1` (stereo not drawn): the “activity change, negative = inhibition” value is inactive: -15.5%.

Take `CSc1ncc(C(=O)Nc2cccc(Cl)c2C)c(-c2ccccc2)n1`: the “activity change, negative = inhibition” value was inactive: -9.52%.

With `CCN(CC)C(=O)C1=C(C)Nc2nc3ccccc3n2C1c1ccc(Cl)cc1` (stereo not drawn), the “activity change, negative = inhibition” value was inactive: 0.308%.

Turning to `Cc1cc(NC(=O)CSc2ncc(C(=O)Nc3ccccc3)c(=O)n2C)no1`, the compound was classed as inactive.

On to `Cc1ccccc1NC(=O)c1ccc(CNS(=O)(=O)c2ccc3c(c2)C(C)(C)C(=O)N3C)cc1`, for which the outcome was inactive.

For `COc1ccccc1CNC(=O)C(Cc1ccccc1)NS(=O)(=O)c1ccc2c(c1)CCN2C(C)=O` (stereo not drawn), the “activity change, negative = inhibition” value was inactive: 19.4%.

As for `O=C(NCc1ccccn1)c1nn(-c2ccccc2Cl)nc1CO`, the “activity change, negative = inhibition” value was inactive: -2.91%.

On to `CCn1c(CN2CCN(C)CC2)nc2cc(NC(=O)c3cc(OC)c(OC)c(OC)c3)ccc21`, for which the “activity change, negative = inhibition” value was inactive: -11.5%.

Regarding `CCOc1ccccc1C(=O)NCC(c1ccc(N(C)C)cc1)N1CCCC1` (stereo not drawn), the “activity change, negative = inhibition” value was inactive: -2.13%.

As to `CS(=O)(=O)N1CCC(N2CCN(Cc3ccc(F)cc3)C(=O)C2=O)CC1`, the “activity change, negative = inhibition” value was inactive: 3.29%.

With `CCN(CC)C(=O)C1CCCN(c2ncnc3c2nc2n3CCCCC2)C1` (stereo not drawn), the “activity change, negative = inhibition” value is inactive: -0.693%.

As for `COCCn1c(CNC(=O)c2cc(OC)c(OC)c(OC)c2)nc2cccnc21`, the “activity change, negative = inhibition” value was inactive: 4.1%.
